Laboratory results published in PMC4336329 (PLoS ONE, 2015).
About 2,200 (0.71%) of roughly 310,000 compounds showed an effect of 50% or more. Effects have a minus sign here. Some of the results follow.

Target: human ether-à-go-go-related gene (hERG) potassium channel (human, UniProt Q12809)
Assay: primary screen, population patch clamp on CHO cells stably expressing hERG

human ether-à-go-go-related gene (hERG) potassium channel, sequence (Q12809 whole entry, looked up): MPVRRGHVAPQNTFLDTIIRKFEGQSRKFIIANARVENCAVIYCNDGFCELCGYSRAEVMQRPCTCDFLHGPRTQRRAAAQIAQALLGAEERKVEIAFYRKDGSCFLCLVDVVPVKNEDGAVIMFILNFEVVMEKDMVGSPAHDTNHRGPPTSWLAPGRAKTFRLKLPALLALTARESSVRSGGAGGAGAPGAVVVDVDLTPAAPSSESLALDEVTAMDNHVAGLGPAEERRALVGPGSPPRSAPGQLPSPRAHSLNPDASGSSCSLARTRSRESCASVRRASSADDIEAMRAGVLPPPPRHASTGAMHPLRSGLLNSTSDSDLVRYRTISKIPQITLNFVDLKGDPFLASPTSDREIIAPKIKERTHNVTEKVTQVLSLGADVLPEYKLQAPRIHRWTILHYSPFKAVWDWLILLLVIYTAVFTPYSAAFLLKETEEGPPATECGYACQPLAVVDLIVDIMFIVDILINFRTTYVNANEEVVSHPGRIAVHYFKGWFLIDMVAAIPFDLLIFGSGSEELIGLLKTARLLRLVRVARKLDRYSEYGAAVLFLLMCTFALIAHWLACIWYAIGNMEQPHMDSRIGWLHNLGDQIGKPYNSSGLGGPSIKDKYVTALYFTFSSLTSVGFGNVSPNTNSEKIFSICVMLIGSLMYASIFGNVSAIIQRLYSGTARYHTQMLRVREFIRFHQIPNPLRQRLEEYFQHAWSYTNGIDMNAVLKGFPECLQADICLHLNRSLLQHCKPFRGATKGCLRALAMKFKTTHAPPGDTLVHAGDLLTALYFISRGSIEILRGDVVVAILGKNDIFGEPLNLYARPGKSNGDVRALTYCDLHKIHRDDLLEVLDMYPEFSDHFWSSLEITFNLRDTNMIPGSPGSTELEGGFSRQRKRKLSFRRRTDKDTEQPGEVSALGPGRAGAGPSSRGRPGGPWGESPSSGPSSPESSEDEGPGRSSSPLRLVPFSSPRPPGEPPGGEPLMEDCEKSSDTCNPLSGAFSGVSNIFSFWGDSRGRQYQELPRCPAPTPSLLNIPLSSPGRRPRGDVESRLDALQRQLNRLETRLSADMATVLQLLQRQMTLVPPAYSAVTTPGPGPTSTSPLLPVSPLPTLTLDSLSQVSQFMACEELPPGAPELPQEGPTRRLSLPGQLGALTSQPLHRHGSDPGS

Structure (SMILES)	hERG current change (%, negative = inhibition) at 1uM
O=C(Cc1c(C(=O)O)[nH]c2ccc(Cl)cc12)Nc1ccc2c(c1)OCCO2	11.6%
CCOC(=O)C(C)n1cnc2c(nnn2-c2ccc(OC)cc2)c1=O (stereo not shown)	-2.53%
COc1ccc(C(=O)N2CCN(Cc3ccccn3)CC2)cc1.O=C(O)C(=O)O	3.65%
Clc1ccc(OCCCNCc2ccccc2)c2ccccc12.O=C(O)C(=O)O	11.6%
Cc1c(C(=O)OC/C(O)=C(\C#N)c2nc3ccccc3[nH]2)oc2ccc(Br)cc12	8.98%
CC1(C(=O)N(CC(=O)NC2CCCC2)Cc2ccco2)CC(=O)N=C2C=CC=CN21 (stereo not shown)	9.85%
N#Cc1ccc(OCC(=O)NCCc2ccc(S(N)(=O)=O)cc2)cc1	6.97%
COc1ccccc1CCNS(=O)(=O)c1cc2c3c(c1)C(C)C(=O)N3CCC2 (stereo not shown)	12.7%
O=C(c1ccco1)N1CCN(S(=O)(=O)c2ccc(C3CCCCC3)cc2)CC1	9.58%
COc1ccccc1CNC(=O)c1ccc(NS(=O)(=O)c2c(C)noc2C)cc1	5%
O=C(c1ccncc1)c1ccc(N2CCN(C3CC(=O)N(Cc4ccccc4)C3=O)CC2)cc1 (stereo not shown)	-9.19%
CCc1c(C(=O)NCCc2ccc(OC)c(OC)c2)[nH]c(C)c1C(C)=O	9.02%
CC(C)[C@H](NS(=O)(=O)c1ccccc1)C(=O)OCn1nnc2ccccc2c1=O	4.31%
Cc1ccccc1-c1nn(-c2ccc(F)cc2F)cc1CNCC(C)O (stereo not shown)	5.64%
CN(CCOc1ccccc1Cl)Cc1ccccc1.O=C(O)C(=O)O	14%
CCCC(=O)Nc1c(-c2ccccc2OC)c(=O)c2ccccc2n1C	-1.6%
O=S(=O)(c1cccs1)N1CCN(CC(O)COC2CCCc3ccccc32)CC1 (stereo not shown)	14.7%
COc1ccc(C(=O)O/N=C(\N)c2ccc(OC)c(OC)c2)c(OC)c1	9%
COc1cc(C(=O)OCC(=O)Nc2cc(S(=O)(=O)N3CCOCC3)ccc2C)ccc1OCC(C)C	-0.0958%
Cc1cc(C(=O)CSc2nnc(N)s2)c(C)n1CCc1ccc(Cl)cc1	-4.99%
Cc1ccc(CNC(=O)CCS(=O)(=O)c2ccc3nc(C)sc3c2)cc1	11%
COc1cccc(/C(C)=N/NC(=O)Cc2c(C)[nH][nH]c2=O)c1	9.17%

Structure (SMILES)	hERG current change (%, negative = inhibition) at 1uM
CSc1ccccc1NC(=O)c1ccc(Br)o1	5.2%
O=S(=O)(NCC(O)c1ccccc1)c1ccc(-c2ccccn2)s1 (stereo not shown)	15.6%
Cc1cc(C)cc(C(=O)NC(CC(N)=O)c2ccc(NC3CCCCCCCCCCC3)c([N+](=O)[O-])c2)c1 (stereo not shown)	-5.02%
CCOC(=O)c1csc(NC(=O)C2=COCCO2)n1	13.2%
CCOC(=O)N1CCN(C(=O)c2ccc3c(c2)NC(=O)/C(=C\c2ccc(OC)c(OC)c2)S3)CC1	9.3%
CC(NC(=O)COC(=O)Cc1ccc(-c2ccccc2)cc1)c1ccccc1 (stereo not shown)	14.3%
Cn1c(CCN2CCCC2)nc2cc(NS(=O)(=O)c3ccccc3)ccc21	6.41%
COc1ccc2cc(C(=O)N3CCC(Cc4ccccc4)CC3)[nH]c2c1	16.2%
O=C(COC(=O)c1ccncc1)c1ccc(Br)cc1	11.3%
COCCCNC(=O)CCc1c(C)nc2c(-c3ccc(F)cc3)c(C)nn2c1C	-7.41%
CC(C)C[C@@H](C(=O)NC1CCN(Cc2ccccc2)CC1)N1C(=O)N2CCc3c([nH]c4ccccc34)[C@@]2(C)C1=O	-12.1%
CCOC(=O)c1c(NC(=O)CSc2nnc(-c3ccc(C)cc3)o2)sc(C(C)=O)c1C	13.9%
CCOC(=O)c1sc2nc(C)nc(NCCc3ccc(S(N)(=O)=O)cc3)c2c1C	13.7%
CCCCC1=CC2=CC(=O)C(C)(OC(=O)CCC(=O)OC)C(=O)C2=CO1 (stereo not shown)	8.73%
Cc1cc(C(C)(C)C)cc(C)c1S(=O)(=O)N1CCN(C(=O)c2cc([N+](=O)[O-])c[nH]c2=O)CC1	3.68%
Cc1cc(N2C(=O)C(O)=C(C(=O)c3cc4ccccc4o3)C2c2ccc([N+](=O)[O-])cc2)no1 (stereo not shown)	23.7%
CC(C)(C)NC(=O)C(=O)NN=C1CCCCCCCCCCC1	10.6%
CC(C)(C)NC(=O)CSc1nc(O)cc(=O)[nH]1	11.6%
Cc1ccc2c(c1)N(C(=O)CCC(=O)NCCN1CCOCC1)CC(C)O2 (stereo not shown)	4.33%
Cc1onc(-c2c(Cl)cccc2Cl)c1C(=O)NCc1ccco1	6.16%
Cc1nnc(NC(=O)CSc2ccc(-c3ccccn3)nn2)s1	8.53%
COc1cc(/C=N/O)cc(Br)c1OCC(=O)NCc1ccccc1	-8.18%

Structure (SMILES)	hERG current change (%, negative = inhibition) at 1uM
N#C/C(C(=O)N1CCOCC1)=C1/SC(Cc2ccccc2)C(=O)N1c1ccccc1 (stereo not shown)	0.283%
Cc1nc(SCC(=O)Nc2ccccc2Cl)c2c(C)c(C)sc2n1	8.62%
COc1cc(OC)c(CNC2CCCCCC2)cc1Br	-3.55%
COc1ccc(-n2ncc3c2CC(C)(C)CC3NC(=O)CCc2c(C)noc2C)cc1 (stereo not shown)	6.79%
CC(=O)N1c2ccc(S(=O)(=O)N3CCCC3)cc2CC1C(=O)NCc1ccccc1F (stereo not shown)	10.2%
O=C(CSc1nc2ccccc2s1)Nc1ccc2c(c1)oc1ccccc12	3.23%
CSc1ccccc1NC(=O)Cn1nc([N+](=O)[O-])cc1C	4.8%
CC(C)c1ccc(NC(=O)COc2ccc(F)cc2C(=O)c2cnn(-c3ccccc3)c2)cc1	7.99%
CCOCC(=O)Nc1nc2ccc(C)cc2s1	3.34%
CC(C)OC(=O)c1cc(C(=O)c2cc(Cl)ccc2O)coc1=N	22.9%
COc1cccc(NC(=O)N2CCCC2C(=O)NCc2ccccc2F)c1 (stereo not shown)	-1.09%
CCOc1cc(CNc2ccc(N(C)C)cc2)cc(Br)c1OCC(=O)NC(C)(C)C	7.27%
Cc1cccc(NC(=O)C2CCCN(S(=O)(=O)c3ccc4c(c3)oc(=O)n4C)C2)c1 (stereo not shown)	9.71%
O=C(NC1CCCC1)C1CCC(CNS(=O)(=O)c2ccc(F)cc2)CC1 (stereo not shown)	-4.73%
Cc1noc(C)c1CSc1nnc(-c2ccccc2)n1N	5.8%
CCN1/C(=C2\C(=O)N(C)C(=S)N2C)C=Cc2ccccc21	9.64%
COc1ccccc1/C=N/NC(=O)c1cccc(OC(F)(F)C(F)F)c1	1.99%
CC(CC(=O)N1CCN(S(=O)(=O)c2ccccc2)CC1)n1cncn1 (stereo not shown)	15.7%
CCOC(=O)CSc1nc2ccc(Nc3nc(N4CCOCC4)nc(N4CCOCC4)n3)cc2s1	-1.16%
COc1ccc(C(=O)C2CCCN(S(=O)(=O)c3cccnc3)C2)c(C)c1 (stereo not shown)	3.46%
Oc1c(Br)cc(Cl)cc1C=Nc1ccc(N2CCOCC2)cc1	15.1%
CSc1nnnn1-c1ccc(Cl)cc1	9.87%

Structure (SMILES)	hERG current change (%, negative = inhibition) at 1uM
Cc1ccc2[nH]c(=O)c(CN(CCCN3CCOCC3)C(=O)Nc3cccc(Cl)c3)cc2c1	7.46%
CC(=O)Nc1ccccc1S(=O)(=O)CC1CC1(Cl)Cl (stereo not shown)	15.7%
Cc1ccc(CSCCNC(=O)CN(c2ccc(F)cc2)S(C)(=O)=O)cc1	17.6%
CN1C(=O)CC(N2CCC(C(N)=O)(N3CCCCC3)CC2)C1=O (stereo not shown)	2.45%
CC(C)COC(=O)N1C[C@H](O)C[C@H]1C(=O)Nc1ccc(Cl)cc1	10.1%
COC(=O)CSc1nnc(C)n1-c1ccc(C)cc1	13.7%
COc1ccc(/C=C(\NC(=O)c2ccccc2)C(=O)OCC2CCCN3CCCCC23)cc1OC (stereo not shown)	3.68%
CC(N)Cc1ccccc1Sc1ccc(O)cc1.O=C(O)C(=O)O (stereo not shown)	-1.15%
COc1ccc(C2(c3ccc(OC)cc3)NC(=O)N(CC(=O)N(C)C)C2=O)cc1	15.5%
O=C(CN1CCOCC1)c1ccc2cc[nH]c2c1	9.34%
COc1ccc(NS(=O)(=O)c2cc(NC(=O)c3ccc(=O)[nH]c3)ccc2C)cc1	18.5%
Cl.Nn1cnnc1N/N=C/c1ccccc1C(F)(F)F	21.7%
CC(=O)c1ccc(NC(=O)/C(=C\c2ccccc2)NC(=O)c2ccco2)cc1	6.59%
CN(c1ccccc1)S(=O)(=O)c1ccc(C(=O)N2CCc3ccccc3C2)cc1	0.39%
COC(=O)c1c(-c2ccc(C)cc2)csc1NC(=S)NC(=O)c1ccc(F)cc1	4.31%
O=C1C=C(c2cccnc2)CCC1	13.7%
CN(CC(=O)Nc1ccc(F)cc1)S(=O)(=O)c1ccc2c(c1)c(=O)n(C)c(=O)n2C	11.8%
CCCCC(=O)Nc1nnc(C)s1	7.9%
Cc1ccc(-c2nc(CSCC(=O)NCC3CCCO3)c(C)o2)cc1 (stereo not shown)	11.8%
